Assay results from article PMC8726484.
Results are given in words; binding and its absence hold for the method and conditions named. Binding seen in cells or lysates may run through a third protein. Some entries that bind do so weakly or less than the wild type. For some of these results: Tags and fused reporters may be left off the sequences shown.

The chains behind the UniProt entries cited, without tags or fusion partners.
UniProt Q923J1: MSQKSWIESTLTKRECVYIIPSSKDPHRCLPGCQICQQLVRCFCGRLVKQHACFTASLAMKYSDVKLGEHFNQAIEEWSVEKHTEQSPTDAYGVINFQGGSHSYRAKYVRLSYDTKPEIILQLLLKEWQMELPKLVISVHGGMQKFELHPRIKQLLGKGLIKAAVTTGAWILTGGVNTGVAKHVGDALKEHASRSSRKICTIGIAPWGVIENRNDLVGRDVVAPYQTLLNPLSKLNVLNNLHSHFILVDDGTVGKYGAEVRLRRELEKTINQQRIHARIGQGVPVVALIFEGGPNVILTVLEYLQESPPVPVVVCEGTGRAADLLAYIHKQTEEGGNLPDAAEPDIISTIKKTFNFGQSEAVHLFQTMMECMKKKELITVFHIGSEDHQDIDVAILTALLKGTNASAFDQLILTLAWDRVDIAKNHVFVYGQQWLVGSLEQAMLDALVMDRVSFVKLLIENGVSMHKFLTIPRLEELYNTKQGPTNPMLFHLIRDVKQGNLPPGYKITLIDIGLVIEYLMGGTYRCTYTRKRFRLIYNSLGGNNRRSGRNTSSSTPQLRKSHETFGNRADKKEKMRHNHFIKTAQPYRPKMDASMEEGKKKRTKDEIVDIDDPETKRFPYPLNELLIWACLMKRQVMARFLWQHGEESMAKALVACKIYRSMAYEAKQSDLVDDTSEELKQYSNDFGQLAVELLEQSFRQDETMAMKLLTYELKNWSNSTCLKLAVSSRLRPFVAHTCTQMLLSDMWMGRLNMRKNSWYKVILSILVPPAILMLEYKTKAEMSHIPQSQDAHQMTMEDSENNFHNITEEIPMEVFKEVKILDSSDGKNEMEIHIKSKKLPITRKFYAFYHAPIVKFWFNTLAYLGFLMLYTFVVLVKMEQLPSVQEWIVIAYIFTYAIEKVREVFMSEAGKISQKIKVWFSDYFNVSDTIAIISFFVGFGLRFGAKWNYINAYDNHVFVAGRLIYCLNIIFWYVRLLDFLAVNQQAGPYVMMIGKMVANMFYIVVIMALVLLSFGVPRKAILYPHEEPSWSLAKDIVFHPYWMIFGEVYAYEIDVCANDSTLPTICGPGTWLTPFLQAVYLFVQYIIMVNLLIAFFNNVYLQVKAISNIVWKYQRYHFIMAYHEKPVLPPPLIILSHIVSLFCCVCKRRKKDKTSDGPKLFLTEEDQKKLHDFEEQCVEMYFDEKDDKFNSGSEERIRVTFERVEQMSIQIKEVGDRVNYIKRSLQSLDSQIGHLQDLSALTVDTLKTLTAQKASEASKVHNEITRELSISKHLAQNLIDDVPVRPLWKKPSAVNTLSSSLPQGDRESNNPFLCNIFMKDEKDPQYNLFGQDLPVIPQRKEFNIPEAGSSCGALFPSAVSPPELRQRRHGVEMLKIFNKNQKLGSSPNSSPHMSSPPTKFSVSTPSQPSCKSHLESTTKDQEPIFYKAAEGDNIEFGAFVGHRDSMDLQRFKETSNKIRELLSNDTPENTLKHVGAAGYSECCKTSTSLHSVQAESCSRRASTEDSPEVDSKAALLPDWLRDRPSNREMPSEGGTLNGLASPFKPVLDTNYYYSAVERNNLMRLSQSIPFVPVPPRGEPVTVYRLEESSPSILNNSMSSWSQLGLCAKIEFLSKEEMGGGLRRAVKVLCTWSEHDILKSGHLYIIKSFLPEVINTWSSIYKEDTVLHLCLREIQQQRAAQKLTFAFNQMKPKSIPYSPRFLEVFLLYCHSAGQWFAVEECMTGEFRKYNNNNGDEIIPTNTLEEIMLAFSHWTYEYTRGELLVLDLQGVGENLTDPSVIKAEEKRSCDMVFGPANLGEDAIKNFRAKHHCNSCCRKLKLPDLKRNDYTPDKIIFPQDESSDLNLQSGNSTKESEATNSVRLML
UniProt O94759: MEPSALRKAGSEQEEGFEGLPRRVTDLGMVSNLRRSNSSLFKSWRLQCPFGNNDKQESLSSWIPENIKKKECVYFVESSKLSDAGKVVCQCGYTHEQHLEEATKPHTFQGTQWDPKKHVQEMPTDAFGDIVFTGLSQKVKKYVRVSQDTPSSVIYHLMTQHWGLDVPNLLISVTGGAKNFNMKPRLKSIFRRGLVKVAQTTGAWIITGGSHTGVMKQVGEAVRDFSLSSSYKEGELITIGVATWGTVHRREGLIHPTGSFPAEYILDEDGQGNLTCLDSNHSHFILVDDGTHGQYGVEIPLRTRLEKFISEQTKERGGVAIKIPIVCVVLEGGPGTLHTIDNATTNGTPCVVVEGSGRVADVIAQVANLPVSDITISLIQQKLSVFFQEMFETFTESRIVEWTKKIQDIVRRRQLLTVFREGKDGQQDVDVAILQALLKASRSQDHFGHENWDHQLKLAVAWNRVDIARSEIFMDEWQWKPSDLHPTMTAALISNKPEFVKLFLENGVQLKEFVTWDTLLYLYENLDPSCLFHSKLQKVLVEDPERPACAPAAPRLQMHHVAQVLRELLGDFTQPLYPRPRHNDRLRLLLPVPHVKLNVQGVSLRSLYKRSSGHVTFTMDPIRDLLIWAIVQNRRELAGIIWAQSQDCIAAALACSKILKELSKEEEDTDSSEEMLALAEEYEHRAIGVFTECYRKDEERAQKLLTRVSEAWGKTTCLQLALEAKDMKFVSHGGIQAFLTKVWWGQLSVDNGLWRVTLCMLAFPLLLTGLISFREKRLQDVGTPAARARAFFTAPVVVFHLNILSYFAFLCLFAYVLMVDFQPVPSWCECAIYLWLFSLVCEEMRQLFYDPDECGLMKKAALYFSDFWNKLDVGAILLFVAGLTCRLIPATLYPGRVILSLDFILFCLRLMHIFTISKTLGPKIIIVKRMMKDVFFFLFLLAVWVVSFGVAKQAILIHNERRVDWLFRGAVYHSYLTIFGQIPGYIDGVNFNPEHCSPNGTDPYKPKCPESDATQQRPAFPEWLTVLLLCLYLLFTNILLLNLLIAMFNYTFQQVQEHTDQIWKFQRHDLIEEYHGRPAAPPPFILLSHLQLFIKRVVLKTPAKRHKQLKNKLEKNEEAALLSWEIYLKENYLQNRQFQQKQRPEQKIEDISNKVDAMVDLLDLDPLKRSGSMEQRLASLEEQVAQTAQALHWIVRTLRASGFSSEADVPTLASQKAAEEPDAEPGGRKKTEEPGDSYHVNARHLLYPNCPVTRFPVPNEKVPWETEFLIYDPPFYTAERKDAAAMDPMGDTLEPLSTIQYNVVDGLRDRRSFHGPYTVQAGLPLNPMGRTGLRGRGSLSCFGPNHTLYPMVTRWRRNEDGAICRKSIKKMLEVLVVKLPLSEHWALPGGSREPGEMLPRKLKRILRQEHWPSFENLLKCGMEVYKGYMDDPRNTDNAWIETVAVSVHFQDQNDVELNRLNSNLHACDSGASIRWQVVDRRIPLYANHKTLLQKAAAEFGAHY
UniProt Q9NRU3: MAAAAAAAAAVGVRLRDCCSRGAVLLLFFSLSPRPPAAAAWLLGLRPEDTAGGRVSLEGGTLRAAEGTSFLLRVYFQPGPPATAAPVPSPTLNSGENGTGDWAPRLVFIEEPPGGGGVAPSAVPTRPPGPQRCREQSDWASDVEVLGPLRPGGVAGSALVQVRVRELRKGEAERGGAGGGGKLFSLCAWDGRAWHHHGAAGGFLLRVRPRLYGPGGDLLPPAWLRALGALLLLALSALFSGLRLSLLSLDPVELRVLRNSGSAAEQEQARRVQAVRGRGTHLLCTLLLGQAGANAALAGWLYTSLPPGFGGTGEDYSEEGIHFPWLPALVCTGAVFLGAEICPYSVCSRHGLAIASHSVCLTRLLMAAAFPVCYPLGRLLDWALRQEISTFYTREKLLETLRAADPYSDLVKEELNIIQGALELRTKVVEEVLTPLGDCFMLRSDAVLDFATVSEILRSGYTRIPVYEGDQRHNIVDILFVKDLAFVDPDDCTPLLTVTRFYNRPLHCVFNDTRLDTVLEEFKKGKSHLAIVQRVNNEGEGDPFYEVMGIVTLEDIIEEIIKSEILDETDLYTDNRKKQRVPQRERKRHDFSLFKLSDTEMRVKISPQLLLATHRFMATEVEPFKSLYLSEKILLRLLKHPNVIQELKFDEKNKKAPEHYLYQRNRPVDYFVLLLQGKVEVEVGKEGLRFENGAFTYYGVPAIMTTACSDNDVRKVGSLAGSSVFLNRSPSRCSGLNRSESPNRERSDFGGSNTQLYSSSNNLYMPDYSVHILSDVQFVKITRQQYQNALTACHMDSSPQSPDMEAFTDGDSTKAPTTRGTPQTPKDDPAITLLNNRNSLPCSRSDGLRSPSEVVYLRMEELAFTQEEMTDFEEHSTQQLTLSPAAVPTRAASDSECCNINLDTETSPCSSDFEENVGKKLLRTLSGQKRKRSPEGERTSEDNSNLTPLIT
UniProt Q96QT4: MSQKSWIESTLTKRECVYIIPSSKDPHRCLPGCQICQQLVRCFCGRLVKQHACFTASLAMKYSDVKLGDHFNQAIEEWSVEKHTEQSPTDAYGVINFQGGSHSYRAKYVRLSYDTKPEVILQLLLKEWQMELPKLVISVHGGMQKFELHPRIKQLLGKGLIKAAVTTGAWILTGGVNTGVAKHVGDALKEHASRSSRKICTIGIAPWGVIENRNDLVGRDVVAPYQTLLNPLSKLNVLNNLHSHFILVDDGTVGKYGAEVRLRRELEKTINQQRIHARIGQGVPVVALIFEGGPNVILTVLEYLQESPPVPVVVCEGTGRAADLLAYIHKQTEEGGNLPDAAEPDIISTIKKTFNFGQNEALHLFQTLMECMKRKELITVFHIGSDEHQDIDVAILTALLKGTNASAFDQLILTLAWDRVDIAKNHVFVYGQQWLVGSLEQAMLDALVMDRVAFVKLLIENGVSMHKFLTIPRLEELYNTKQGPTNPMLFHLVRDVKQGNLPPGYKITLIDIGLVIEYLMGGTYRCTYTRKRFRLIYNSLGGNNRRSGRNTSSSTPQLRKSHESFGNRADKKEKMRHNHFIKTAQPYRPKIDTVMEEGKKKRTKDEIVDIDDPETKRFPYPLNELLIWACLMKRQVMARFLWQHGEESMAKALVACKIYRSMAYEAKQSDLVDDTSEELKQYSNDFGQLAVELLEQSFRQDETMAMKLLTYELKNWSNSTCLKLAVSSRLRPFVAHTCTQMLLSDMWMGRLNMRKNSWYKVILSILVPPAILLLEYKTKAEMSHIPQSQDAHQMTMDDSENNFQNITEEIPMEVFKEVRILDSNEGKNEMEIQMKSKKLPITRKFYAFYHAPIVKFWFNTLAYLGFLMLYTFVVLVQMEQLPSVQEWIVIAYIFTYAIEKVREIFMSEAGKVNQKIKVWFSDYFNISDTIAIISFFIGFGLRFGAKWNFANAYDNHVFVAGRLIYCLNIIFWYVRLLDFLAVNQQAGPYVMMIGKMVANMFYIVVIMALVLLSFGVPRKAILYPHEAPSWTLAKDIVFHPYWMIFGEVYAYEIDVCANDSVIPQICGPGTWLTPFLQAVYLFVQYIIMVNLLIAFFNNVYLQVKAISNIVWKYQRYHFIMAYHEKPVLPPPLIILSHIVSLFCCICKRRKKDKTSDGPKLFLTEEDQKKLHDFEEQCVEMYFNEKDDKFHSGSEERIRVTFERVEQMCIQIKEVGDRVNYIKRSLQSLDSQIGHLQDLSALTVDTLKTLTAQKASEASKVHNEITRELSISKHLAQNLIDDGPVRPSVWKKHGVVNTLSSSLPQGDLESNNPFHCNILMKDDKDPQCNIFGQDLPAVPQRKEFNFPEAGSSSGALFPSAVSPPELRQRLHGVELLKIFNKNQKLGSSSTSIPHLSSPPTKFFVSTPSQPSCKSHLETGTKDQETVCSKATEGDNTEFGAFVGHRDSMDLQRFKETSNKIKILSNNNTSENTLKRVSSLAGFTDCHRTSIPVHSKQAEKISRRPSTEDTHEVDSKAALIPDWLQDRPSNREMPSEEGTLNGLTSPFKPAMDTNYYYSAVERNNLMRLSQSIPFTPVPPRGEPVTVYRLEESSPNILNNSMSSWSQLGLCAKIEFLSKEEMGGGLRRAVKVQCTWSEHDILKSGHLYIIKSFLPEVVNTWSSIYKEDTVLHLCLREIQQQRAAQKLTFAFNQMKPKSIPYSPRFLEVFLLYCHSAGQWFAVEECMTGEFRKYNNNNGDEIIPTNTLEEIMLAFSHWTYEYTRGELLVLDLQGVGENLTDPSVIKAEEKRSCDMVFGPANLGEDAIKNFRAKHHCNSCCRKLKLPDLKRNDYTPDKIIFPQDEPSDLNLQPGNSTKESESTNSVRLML

Assays:
[1] = biological target: HA-tagged mouse TRPM7 expressed from the recombinant adenovirus pAd/CMV/V5-SR-TRPM7 (Ad-TRPM7-HA) (mouse) (UniProt Q923J1); assay: co-IP; HA-TRPM7 expressed in HAP1 cells by viral transduction (Ad-TRPM7-HA), immunoprecipitated with HA-agarose, blots for native CNNMs
[2] = biological target: HA-tagged TRPM7 (pcDNA5-FRT-TO-HA-TRPM7) (mouse) (UniProt Q923J1); assay: co-IP; HA-TRPM7 transiently transfected into Hela cells, immunoprecipitated with HA-agarose, blots for native CNNMs
[3] = biological target: T1, FLAG-tagged mouse CNNM2 (pCMV-4A) (mouse) (UniProt Q3TWN3); assay: co-IP; FLAG-CNNM isoforms individually expressed in HEK-293T cells and immunoprecipitated, blots for native CNNM isoforms (S16 Fig A-D)
T1 sequence: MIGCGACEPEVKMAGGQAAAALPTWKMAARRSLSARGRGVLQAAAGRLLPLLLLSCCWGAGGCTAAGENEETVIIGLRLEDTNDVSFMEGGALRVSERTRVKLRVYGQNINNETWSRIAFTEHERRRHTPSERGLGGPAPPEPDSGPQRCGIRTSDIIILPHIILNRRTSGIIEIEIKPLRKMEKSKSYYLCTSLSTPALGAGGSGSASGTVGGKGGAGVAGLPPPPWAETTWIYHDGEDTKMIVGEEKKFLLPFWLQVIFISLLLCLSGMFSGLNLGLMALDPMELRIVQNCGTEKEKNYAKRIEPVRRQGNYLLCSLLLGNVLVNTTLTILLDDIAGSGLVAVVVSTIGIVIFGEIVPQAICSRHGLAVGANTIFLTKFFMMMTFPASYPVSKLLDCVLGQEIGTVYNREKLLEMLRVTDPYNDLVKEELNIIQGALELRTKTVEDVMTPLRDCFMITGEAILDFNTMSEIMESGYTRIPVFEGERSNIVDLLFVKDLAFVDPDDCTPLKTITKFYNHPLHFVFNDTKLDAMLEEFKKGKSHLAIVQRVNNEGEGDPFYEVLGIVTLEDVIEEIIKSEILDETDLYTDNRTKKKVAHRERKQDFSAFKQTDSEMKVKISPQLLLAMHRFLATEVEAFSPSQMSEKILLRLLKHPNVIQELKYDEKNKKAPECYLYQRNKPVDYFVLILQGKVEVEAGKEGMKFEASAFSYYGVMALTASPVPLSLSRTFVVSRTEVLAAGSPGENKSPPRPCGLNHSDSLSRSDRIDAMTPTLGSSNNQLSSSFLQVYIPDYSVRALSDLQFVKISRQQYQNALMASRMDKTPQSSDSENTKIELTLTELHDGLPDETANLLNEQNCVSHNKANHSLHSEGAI

[4] = biological target: T2, FLAG-tagged human CNNM4 (pCMV-4A) (human) (UniProt Q6P4Q7); assay: as above
T2 sequence: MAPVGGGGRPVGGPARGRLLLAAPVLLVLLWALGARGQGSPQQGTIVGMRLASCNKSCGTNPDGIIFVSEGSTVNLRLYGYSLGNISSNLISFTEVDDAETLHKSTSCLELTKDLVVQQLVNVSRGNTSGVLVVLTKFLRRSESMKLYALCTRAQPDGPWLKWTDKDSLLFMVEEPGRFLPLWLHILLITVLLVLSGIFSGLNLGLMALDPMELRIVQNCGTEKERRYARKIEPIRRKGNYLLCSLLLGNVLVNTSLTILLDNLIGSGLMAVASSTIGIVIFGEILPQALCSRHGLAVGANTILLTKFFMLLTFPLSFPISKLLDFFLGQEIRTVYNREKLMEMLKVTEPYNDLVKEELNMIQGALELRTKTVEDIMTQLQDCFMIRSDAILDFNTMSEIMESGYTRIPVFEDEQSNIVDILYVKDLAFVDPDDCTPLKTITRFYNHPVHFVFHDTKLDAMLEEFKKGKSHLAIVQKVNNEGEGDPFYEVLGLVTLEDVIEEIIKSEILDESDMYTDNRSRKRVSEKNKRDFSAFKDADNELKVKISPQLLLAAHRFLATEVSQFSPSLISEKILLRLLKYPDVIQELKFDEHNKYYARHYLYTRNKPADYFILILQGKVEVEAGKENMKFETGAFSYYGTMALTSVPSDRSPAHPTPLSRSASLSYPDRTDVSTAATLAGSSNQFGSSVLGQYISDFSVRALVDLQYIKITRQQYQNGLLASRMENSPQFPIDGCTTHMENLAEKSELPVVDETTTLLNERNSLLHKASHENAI

[5] = biological target: T3, native CNNM4 (endogenous, human cell lines) (human (endogenous in HEK-293, HEK-293T, Hela, HAP1, ZR-75-1)) (UniProt Q6P4Q7); assay: co-IP; immunoprecipitation of native CNNM3 or native CNNM4, blot for the other native isoform; anti-myc antibody as negative control; cells not named (S16 Fig E, F)
T3 sequence: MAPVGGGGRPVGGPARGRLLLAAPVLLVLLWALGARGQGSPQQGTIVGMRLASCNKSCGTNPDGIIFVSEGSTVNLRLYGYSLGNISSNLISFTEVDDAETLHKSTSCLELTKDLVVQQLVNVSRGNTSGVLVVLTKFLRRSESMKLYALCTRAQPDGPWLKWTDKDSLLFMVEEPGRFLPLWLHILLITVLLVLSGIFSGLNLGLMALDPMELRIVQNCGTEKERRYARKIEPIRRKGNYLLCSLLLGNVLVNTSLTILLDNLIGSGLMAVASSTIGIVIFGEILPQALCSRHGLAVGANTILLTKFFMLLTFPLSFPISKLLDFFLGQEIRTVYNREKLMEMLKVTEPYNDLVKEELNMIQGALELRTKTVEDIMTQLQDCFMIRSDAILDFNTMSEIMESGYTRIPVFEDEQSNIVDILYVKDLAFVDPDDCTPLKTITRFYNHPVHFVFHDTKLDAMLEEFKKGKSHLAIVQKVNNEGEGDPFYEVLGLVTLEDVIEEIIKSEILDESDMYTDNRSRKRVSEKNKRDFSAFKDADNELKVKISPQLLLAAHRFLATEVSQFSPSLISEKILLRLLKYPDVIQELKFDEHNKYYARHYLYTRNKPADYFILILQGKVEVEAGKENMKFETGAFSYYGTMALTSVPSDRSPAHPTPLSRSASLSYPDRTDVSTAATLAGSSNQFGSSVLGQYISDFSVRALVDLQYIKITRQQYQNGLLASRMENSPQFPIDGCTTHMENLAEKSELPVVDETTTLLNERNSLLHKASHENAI

[6] = biological target: HA-tagged TRPM7 (pcDNA5-FRT-TO-HA-TRPM7) (mouse) (UniProt Q923J1); assay: co-IP; overexpressed tagged channel immunoprecipitated from HEK-293 cells, blots for native CNNM3 and CNNM4 (Fig 1B); lysis buffer 50 mM TRIS (pH 7.4), 150 mM NaCl, 1% Igepal 630
FLAG-TRPM2 = FLAG-TRPM2 (UniProt O94759); assay: as above
[7] = biological target: T4, FLAG-tagged human CNNM3 (pCMV-4A) (human) (UniProt Q8NE01); assay: co-IP; FLAG-CNNM isoforms individually expressed in HEK-293T cells and immunoprecipitated, blots for native CNNM isoforms (S16 Fig A-D)
T4 sequence: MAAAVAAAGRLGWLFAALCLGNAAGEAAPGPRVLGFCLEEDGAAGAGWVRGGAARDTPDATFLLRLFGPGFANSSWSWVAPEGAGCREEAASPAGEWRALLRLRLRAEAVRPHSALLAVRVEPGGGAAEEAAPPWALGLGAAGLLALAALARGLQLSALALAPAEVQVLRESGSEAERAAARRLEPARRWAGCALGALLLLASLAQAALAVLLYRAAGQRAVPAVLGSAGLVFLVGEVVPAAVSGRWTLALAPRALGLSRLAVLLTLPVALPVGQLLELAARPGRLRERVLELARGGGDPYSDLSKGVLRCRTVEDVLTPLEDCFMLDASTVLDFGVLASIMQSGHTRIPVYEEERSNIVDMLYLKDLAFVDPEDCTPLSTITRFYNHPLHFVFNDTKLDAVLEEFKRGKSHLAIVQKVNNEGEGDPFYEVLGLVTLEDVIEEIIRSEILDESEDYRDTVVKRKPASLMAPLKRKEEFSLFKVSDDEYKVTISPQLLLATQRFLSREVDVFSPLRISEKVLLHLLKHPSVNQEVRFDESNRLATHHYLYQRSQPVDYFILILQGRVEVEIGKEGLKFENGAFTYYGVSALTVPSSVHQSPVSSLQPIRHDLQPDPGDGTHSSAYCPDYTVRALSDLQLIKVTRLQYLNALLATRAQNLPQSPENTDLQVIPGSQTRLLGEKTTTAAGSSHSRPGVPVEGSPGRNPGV

[8] = biological target: FLAG-tagged human CNNM1 (pCMV-4A) (human) (UniProt Q9NRU3); assay: as above
[9] = biological target: native TRPM7 of ZR-75-1 breast cancer cells (human (endogenous in ZR-75-1)) (UniProt Q96QT4); assay: co-IP; native TRPM7 immunoprecipitated overnight from ZR-75-1 cells with 2 μg Anti-TRPM7 antibody (Alomone Labs #ACC-047) bound to Protein A agarose, blot for native CNNM4
[10] = biological target: T5, native CNNM3 (endogenous, human cell lines) (human (endogenous in HEK-293, HEK-293T, Hela, HAP1)) (UniProt Q8NE01); assay: co-IP; immunoprecipitation of native CNNM3 or native CNNM4, blot for the other native isoform; anti-myc antibody as negative control; cells not named (S16 Fig E, F)
T5 sequence: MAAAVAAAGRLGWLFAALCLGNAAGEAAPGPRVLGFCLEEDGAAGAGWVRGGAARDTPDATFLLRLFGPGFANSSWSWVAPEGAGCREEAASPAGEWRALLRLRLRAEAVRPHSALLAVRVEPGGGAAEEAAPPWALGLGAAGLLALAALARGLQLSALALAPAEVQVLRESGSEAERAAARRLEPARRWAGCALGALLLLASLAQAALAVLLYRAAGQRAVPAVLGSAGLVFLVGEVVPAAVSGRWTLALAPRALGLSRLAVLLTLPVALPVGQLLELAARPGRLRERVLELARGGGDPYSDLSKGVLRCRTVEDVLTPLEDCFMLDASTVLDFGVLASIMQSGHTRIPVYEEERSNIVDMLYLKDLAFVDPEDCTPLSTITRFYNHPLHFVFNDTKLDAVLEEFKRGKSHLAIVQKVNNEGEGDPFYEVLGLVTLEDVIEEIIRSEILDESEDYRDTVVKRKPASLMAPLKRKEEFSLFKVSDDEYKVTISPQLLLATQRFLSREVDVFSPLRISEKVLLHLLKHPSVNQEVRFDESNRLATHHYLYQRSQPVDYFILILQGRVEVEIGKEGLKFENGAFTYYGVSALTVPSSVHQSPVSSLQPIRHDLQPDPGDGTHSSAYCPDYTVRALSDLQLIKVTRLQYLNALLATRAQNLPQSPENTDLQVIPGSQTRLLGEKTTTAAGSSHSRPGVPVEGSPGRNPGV

B1: native CNNM3 (endogenous, human cell lines) (protein, UniProt Q8NE01 1-707)
chain: MAAAVAAAGRLGWLFAALCLGNAAGEAAPGPRVLGFCLEEDGAAGAGWVRGGAARDTPDATFLLRLFGPGFANSSWSWVAPEGAGCREEAASPAGEWRALLRLRLRAEAVRPHSALLAVRVEPGGGAAEEAAPPWALGLGAAGLLALAALARGLQLSALALAPAEVQVLRESGSEAERAAARRLEPARRWAGCALGALLLLASLAQAALAVLLYRAAGQRAVPAVLGSAGLVFLVGEVVPAAVSGRWTLALAPRALGLSRLAVLLTLPVALPVGQLLELAARPGRLRERVLELARGGGDPYSDLSKGVLRCRTVEDVLTPLEDCFMLDASTVLDFGVLASIMQSGHTRIPVYEEERSNIVDMLYLKDLAFVDPEDCTPLSTITRFYNHPLHFVFNDTKLDAVLEEFKRGKSHLAIVQKVNNEGEGDPFYEVLGLVTLEDVIEEIIRSEILDESEDYRDTVVKRKPASLMAPLKRKEEFSLFKVSDDEYKVTISPQLLLATQRFLSREVDVFSPLRISEKVLLHLLKHPSVNQEVRFDESNRLATHHYLYQRSQPVDYFILILQGRVEVEIGKEGLKFENGAFTYYGVSALTVPSSVHQSPVSSLQPIRHDLQPDPGDGTHSSAYCPDYTVRALSDLQLIKVTRLQYLNALLATRAQNLPQSPENTDLQVIPGSQTRLLGEKTTTAAGSSHSRPGVPVEGSPGRNPGV
[1]
  binding: binds weakly
[2]
  binding: binds
[3]
  binding: binds
[4]
  binding: binds
[5]
  binding: binds
[6]
  binding: binds
FLAG-TRPM2
  binding: no binding

B2: native CNNM4 (endogenous, human cell lines) (protein, UniProt Q6P4Q7 1-775)
chain: MAPVGGGGRPVGGPARGRLLLAAPVLLVLLWALGARGQGSPQQGTIVGMRLASCNKSCGTNPDGIIFVSEGSTVNLRLYGYSLGNISSNLISFTEVDDAETLHKSTSCLELTKDLVVQQLVNVSRGNTSGVLVVLTKFLRRSESMKLYALCTRAQPDGPWLKWTDKDSLLFMVEEPGRFLPLWLHILLITVLLVLSGIFSGLNLGLMALDPMELRIVQNCGTEKERRYARKIEPIRRKGNYLLCSLLLGNVLVNTSLTILLDNLIGSGLMAVASSTIGIVIFGEILPQALCSRHGLAVGANTILLTKFFMLLTFPLSFPISKLLDFFLGQEIRTVYNREKLMEMLKVTEPYNDLVKEELNMIQGALELRTKTVEDIMTQLQDCFMIRSDAILDFNTMSEIMESGYTRIPVFEDEQSNIVDILYVKDLAFVDPDDCTPLKTITRFYNHPVHFVFHDTKLDAMLEEFKKGKSHLAIVQKVNNEGEGDPFYEVLGLVTLEDVIEEIIKSEILDESDMYTDNRSRKRVSEKNKRDFSAFKDADNELKVKISPQLLLAAHRFLATEVSQFSPSLISEKILLRLLKYPDVIQELKFDEHNKYYARHYLYTRNKPADYFILILQGKVEVEAGKENMKFETGAFSYYGTMALTSVPSDRSPAHPTPLSRSASLSYPDRTDVSTAATLAGSSNQFGSSVLGQYISDFSVRALVDLQYIKITRQQYQNGLLASRMENSPQFPIDGCTTHMENLAEKSELPVVDETTTLLNERNSLLHKASHENAI
[1]
  binding: binds weakly
[2]
  binding: binds
[3]
  binding: no binding
[7]
  binding: binds
[8]
  binding: binds
[9]
  binding: binds
[10]
  binding: binds
[6]
  binding: binds
FLAG-TRPM2
  binding: no binding
